Article PMC4336329 (PLoS ONE, 2015)
In all, about 310,000 compounds went through this assay and about 2,200 (0.71%) showed an effect of 50% or more. The effect is printed as a negative number. This is one part of the list.

Target: human ether-à-go-go-related gene (hERG) potassium channel (human, UniProt Q12809)
Test: primary screen, population patch clamp on CHO cells stably expressing hERG

Sequence of human ether-à-go-go-related gene (hERG) potassium channel (Q12809 whole entry, looked up): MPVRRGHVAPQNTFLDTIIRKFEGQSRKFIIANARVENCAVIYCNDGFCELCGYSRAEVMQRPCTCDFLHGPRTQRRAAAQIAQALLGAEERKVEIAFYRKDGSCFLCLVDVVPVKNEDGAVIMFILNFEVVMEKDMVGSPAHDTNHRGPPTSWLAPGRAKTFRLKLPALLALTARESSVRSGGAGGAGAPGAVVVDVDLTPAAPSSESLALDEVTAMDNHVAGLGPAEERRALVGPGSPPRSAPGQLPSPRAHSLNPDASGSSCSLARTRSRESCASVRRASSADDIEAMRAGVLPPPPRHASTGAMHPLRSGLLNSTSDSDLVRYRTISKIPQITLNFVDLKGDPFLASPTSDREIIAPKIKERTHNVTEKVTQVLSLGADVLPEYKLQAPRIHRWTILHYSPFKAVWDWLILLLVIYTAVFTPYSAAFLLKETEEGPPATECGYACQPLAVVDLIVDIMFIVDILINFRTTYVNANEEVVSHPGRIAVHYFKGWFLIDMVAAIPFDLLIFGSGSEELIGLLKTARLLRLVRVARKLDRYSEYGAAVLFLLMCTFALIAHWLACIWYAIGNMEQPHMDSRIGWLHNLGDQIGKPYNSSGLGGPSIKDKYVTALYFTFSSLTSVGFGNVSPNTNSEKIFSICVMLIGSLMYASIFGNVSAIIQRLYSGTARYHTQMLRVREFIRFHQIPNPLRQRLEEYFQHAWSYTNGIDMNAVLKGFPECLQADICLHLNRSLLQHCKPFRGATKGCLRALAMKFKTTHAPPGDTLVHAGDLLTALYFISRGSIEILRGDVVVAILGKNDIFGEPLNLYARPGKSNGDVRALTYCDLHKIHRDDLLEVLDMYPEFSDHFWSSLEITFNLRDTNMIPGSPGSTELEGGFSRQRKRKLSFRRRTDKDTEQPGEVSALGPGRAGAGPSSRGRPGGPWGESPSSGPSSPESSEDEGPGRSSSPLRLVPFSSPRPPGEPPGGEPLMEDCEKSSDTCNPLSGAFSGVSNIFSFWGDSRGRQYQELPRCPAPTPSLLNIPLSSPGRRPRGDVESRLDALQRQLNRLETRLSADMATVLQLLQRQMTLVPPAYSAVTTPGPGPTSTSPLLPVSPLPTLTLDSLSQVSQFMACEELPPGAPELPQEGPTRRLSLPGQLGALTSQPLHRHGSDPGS

| SMILES | hERG current change (%, negative = inhibition) at 1uM [%] |
| --- | --- |
| O=C(O)CSc1nnc(-c2ccc(S(=O)(=O)N3CCCC3)cc2)n1Cc1ccco1 | 12.4 |
| CCOC(=O)c1c(N)sc(C(O)(C(F)(F)F)C(F)(F)F)c1-c1ccc(F)cc1 | 10.8 |
| Cc1ccc(NC(=S)Nc2ccc(Br)cc2)cc1 | 8.44 |
| OC[C@H]1O[C@@H]2O[C@H]3[C@H](O)[C@@H](O)[C@@H](O[C@H]4[C@H](O)[C@@H](O)[C@@H](O[C@H]5[C@H](O)[C@@H](O)[C@@H](O[C@H]6[C@H](O)[C@@H](O)[C@@H](O[C@H]7[C@H](O)[C@@H](O)[C@@H](O[C@H]1[C@H](O)[C@H]2O)O[C@@H]7CO)O[C@@H]6CO)O[C@@H]5CO)O[C@@H]4CO)O[C@@H]3CO | 4 |
| CNC(=O)COC(=O)c1ccc(NC(=O)CC#N)cc1 | 12.4 |
| CCCN(CC(=O)Nc1ccc(F)c(F)c1F)C(=O)C1=COCCO1 | 10.3 |
| C/C(=N\NC(=O)CSc1nnc(C)s1)c1ccc(Cl)cc1 | 11.5 |
| CN(CC(=O)Nc1ccccc1Cl)C(=O)Cn1nnc(-c2ccc(F)cc2)n1 | 2.61 |
| CCN(CC)S(=O)(=O)c1ccc(NS(=O)(=O)c2ccc(OC)c([N+](=O)[O-])c2)cc1 | 7.05 |
| CC(=O)c1cccc(NC(=O)N2CCCC2C(=O)NC2CCCC2)c1 (stereo not shown) | 13.7 |
| CCC(=O)N1CCc2cc(Br)cc(S(=O)(=O)NCC3CCCO3)c21 (stereo not shown) | 5.51 |
| S=c1[nH]c(-c2ccccc2)cs1 | 28.2 |
| Cc1ccc(-c2nc3ccccc3c(=O)n2-n2cccc2)cc1 | 5.23 |
| Cc1ccccc1NC(=O)C(=O)NCc1ccccn1 | 4.07 |
| CCOC(=O)c1[nH]c(C)c(C(=O)Nc2ccc(F)cc2)c1C | 11.1 |
| O=C(NC(=S)Nc1ccc(S(=O)(=O)NC2CCCCC2)cc1)c1cccs1 | -1.34 |
| Cc1cc(C(=O)CSc2nc(N)cc(=O)[nH]2)c(C)n1-c1ccc(OC(F)F)cc1 | 14.4 |
| Cc1ccc2cc(C#N)c(SCC(=O)N3CCCc4ccccc43)nc2c1C | 10.9 |
| CC(=O)c1sc(NC(=O)C2CC(=O)N(Cc3ccccc3)C2)nc1-c1ccccc1 (stereo not shown) | 12.4 |
| Cc1ccc(C)c(N2CCN(C(=O)C3CCN(S(=O)(=O)c4cccc5nsnc45)CC3)CC2)c1 | 5.12 |
| C=CCN(Cc1cccc(OC)c1OC)C(=O)Oc1ccccc1 | 14.3 |
| O=C(NCc1nc2ccccc2[nH]1)C1=C[C@@H](c2csc3ccccc23)C[C@@H](OCc2ccc(CO)cc2)O1 | 8.2 |
| COc1ccccc1NC(=O)Cc1nc(CCl)cs1.Cl | 4.96 |
| COc1ccc(N2CCN(c3ncnc4scc(-c5ccccc5)c34)CC2)cc1 | 10.6 |
| C=CCNc1nc(C(=O)OCC(=O)NCc2ccccc2OC)cs1 | 15 |
| C/C(=N\N=C(c1ccccc1)c1ccccc1)c1cccs1 | 5.65 |

| SMILES | hERG current change (%, negative = inhibition) at 1uM [%] |
| --- | --- |
| O=C(Nc1nnc(SCc2ccccc2F)s1)c1ccco1 | 0.801 |
| COc1ccc(NC(=O)CCCN2C(=O)C(c3ccccc3)Oc3cccnc32)c(OC)c1 (stereo not shown) | 10.6 |
| O=C(O)c1ccc(Cn2c(SCc3cc(=O)n4cc(Br)ccc4n3)nc3ccsc3c2=O)cc1 | 3.87 |
| Cc1ccc(S(N)(=O)=O)cc1NC(=O)C(c1ccccc1)c1ccccc1 | 20.4 |
| COc1ccc(C(=O)c2sc(Nc3ccccc3)nc2N)cc1 | 16.7 |
| CC(C)C[C@@H](NC(=O)C1CCC(CNC(=O)[C@@H]2CCCN2C(=O)OC(C)(C)C)CC1)C(=O)O (stereo partly shown) | 12.2 |
| CCCCNCCOCCOc1ccc(C)cc1Br.O=C(O)C(=O)O | -5.59 |
| O=C(NCCc1ccc(Cl)cc1)c1ccc(CS(=O)Cc2ccc(Cl)cc2)o1 (stereo not shown) | 3.84 |
| CCCc1c(C)[nH]c2ccc(NC(C)=O)cc2c1=O | 10.7 |
| CC1(C)Cc2nc3nc(SCC(=O)NCCc4ccccc4)n(-c4ccccc4)c(=O)c3cc2CO1 | -9.93 |
| CCCN(CCC)S(=O)(=O)c1ccc(C(=O)Nc2cc3oc4ccccc4c3cc2OC)cc1 | 4.46 |
| c1nc(N2CCCCCC2)c2[nH]cnc2n1 | 6.77 |
| COc1ccc(NC(=O)CCCN2C(=O)C(c3ccccc3)Oc3cccnc32)cc1OC (stereo not shown) | 1.61 |
| COc1cc(C(=O)N2CCN(c3ccc([N+](=O)[O-])cc3)CC2)ccc1OCc1c(C)noc1C | -4.59 |
| COc1ccc(C(=O)NC2CCCc3c2cnn3-c2cc(F)cc(F)c2)c(OC)n1 (stereo not shown) | 10.5 |
| CCCC(=O)Nc1ccccc1NC(C)=O | 9.5 |
| CC(Nc1nc(N2CCN(CCO)CC2)nc2ccccc12)c1ccccc1 (stereo not shown) | -25.9 |
| N#CCSc1nc2ccccc2c(=O)n1CCC(=O)NC1CCCCC1 | -5.72 |
| CNS(=O)(=O)c1cccc(C(=O)OCC(=O)c2cc(C)n(-c3ccc4c(c3)OCO4)c2C)c1 | 3.72 |
| Cc1ccc(S(=O)(=O)Nc2ccccc2CNc2ccc(Br)cn2)cc1 | 7.02 |
| O=C(NCCc1ccccc1F)C1CC(=O)N(c2ccccc2)C1 (stereo not shown) | 6.74 |
| COc1ccc(N2C(=O)CCC2(C#N)c2ccc(OC)cc2)cc1 (stereo not shown) | 19.6 |
| O=C(Nc1ncc(Cc2ccccc2)s1)C1CCCO1 (stereo not shown) | 7.95 |
| CCOc1nc(C)cc(C)c1S(=O)(=O)c1cccc(Cl)c1 | 18.6 |
| Cn1nnnc1SCC(=O)Nc1ccccc1N1CCOCC1 | 8.58 |
| CCNc1nnc(SCC(=O)N2c3ccccc3NC(=O)CC2C)s1 (stereo not shown) | 13.2 |
